{
  "source": "paper PMC12820563",
  "about": "“FoxP3 forms a head-to-head dimer in vivo and stabilizes its multimerization on adjacent microsatellites”",
  "note": "Some of the results follow.",
  "data": [
    {"biological_target": "T1, MBP-FoxP1dN (Mus musculus, UniProt P58462 326-579)", "T1 sequence": "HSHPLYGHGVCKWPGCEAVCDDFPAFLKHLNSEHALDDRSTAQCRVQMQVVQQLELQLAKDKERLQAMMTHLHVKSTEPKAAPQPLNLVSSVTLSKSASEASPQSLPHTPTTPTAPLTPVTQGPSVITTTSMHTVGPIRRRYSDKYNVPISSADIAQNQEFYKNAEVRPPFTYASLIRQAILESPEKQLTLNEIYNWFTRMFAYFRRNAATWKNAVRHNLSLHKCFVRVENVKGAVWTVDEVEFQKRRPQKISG", "assay": "PD-seq (MBP pull-down with sequencing); 20 mM Tris-HCl pH 7.5, 100 mM NaCl, 1.5 mM MgCl2, 0.4 uM protein, 0.1 uM dsDNA library, 30 min, room temperature, amylose pull-down; high values mean tight binding", "conditions": "protein: recombinant; tags: His6-MBP; chain copies: 2; dsDNA, one strand shown", "in_short": "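In Tris pH 7.5 buffer with NaCl and MgCl2, 0.4 µM His6-MBP-tagged mouse FoxP3 or FoxP1 fragment lacking the N-terminus, from E. coli, met 0.1 µM Klenow-filled double-stranded degenerate DNA library for 30 min at room temperature. Three washes on amylose resin followed capture of the complexes, then proteinase K release of DNA, PCR barcoding and Illumina sequencing. Binding is taken as pooled-replicate reads-per-million enrichment of pull-down relative to input.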", "values": [
      {"sequence": "GATGATTGTTCTCCCAGCTGATGAATTATTGGTATCGAGTAAACAAATTTTCCTAATCTTTCTGTTCAAGCGCCATCTAC", "binding signal": "1.55 RPM ratio (pull-down/input)"},
      {"sequence": "GATGATTGTTCTCCCAGCTGATGAATTTGCCCCGTCGAGTAAACAAATTTTCCTAATCTTTCTGTTCAAGCGCCATCTAC", "binding signal": "0.851 RPM ratio (pull-down/input)"},
      {"sequence": "GATGATTGTTCTCCCAGCTGATGAATTATCTGGATCGAGTAAACAAATTTTCCTAATCTTTCTGTTCAAGCGCCATCTAC", "binding signal": "0.897 RPM ratio (pull-down/input)"},
      {"sequence": "GATGATTGTTCTCCCAGCTGATGAATTGCGTAATTCGAGTAAACAAATTTTCCTAATCTTTCTGTTCAAGCGCCATCTAC", "binding signal": "1.22 RPM ratio (pull-down/input)"},
      {"sequence": "GATGATTGTTCTCCCAGCTGATGAATTTTCCCGTTCGAGTAAACAAATTTTCCTAATCTTTCTGTTCAAGCGCCATCTAC", "binding signal": "0.9 RPM ratio (pull-down/input)"},
      {"sequence": "GATGATTGTTCTCCCAGCTGATGAATTAACGGGTTCGAGTAAACAAATTTTCCTAATCTTTCTGTTCAAGCGCCATCTAC", "binding signal": "0.873 RPM ratio (pull-down/input)"},
      {"sequence": "GATGATTGTTCTCCCAGCTGATGAATTCTACGGGTCGAGTAAACAAATTTTCCTAATCTTTCTGTTCAAGCGCCATCTAC", "binding signal": "0.727 RPM ratio (pull-down/input)"},
      {"sequence": "GATGATTGTTCTCCCAGCTGATGAATTATAGGGGTCGAGTAAACAAATTTTCCTAATCTTTCTGTTCAAGCGCCATCTAC", "binding signal": "0.826 RPM ratio (pull-down/input)"},
      {"sequence": "GATGATTGTTCTCCCAGCTGATGAATTCAATACATCGAGTAAACAAATTTTCCTAATCTTTCTGTTCAAGCGCCATCTAC", "binding signal": "1.19 RPM ratio (pull-down/input)"},
      {"sequence": "GATGATTGTTCTCCCAGCTGATGAATTAATCTCGTCGAGTAAACAAATTTTCCTAATCTTTCTGTTCAAGCGCCATCTAC", "binding signal": "0.852 RPM ratio (pull-down/input)"},
      {"sequence": "GATGATTGTTCTCCCAGCTGATGAATTCTAGACCTCGAGTAAACAAATTTTCCTAATCTTTCTGTTCAAGCGCCATCTAC", "binding signal": "0.748 RPM ratio (pull-down/input)"},
      {"sequence": "GATGATTGTTCTCCCAGCTGATGAATTGGCGCTCTCGAGTAAACAAATTTTCCTAATCTTTCTGTTCAAGCGCCATCTAC", "binding signal": "0.812 RPM ratio (pull-down/input)"},
      {"sequence": "GATGATTGTTCTCCCAGCTGATGAATTAAAGGAGTCGAGTAAACAAATTTTCCTAATCTTTCTGTTCAAGCGCCATCTAC", "binding signal": "0.848 RPM ratio (pull-down/input)"},
      {"sequence": "GATGATTGTTCTCCCAGCTGATGAATTGAGCCGCTCGAGTAAACAAATTTTCCTAATCTTTCTGTTCAAGCGCCATCTAC", "binding signal": "0.734 RPM ratio (pull-down/input)"},
      {"sequence": "GATGATTGTTCTCCCAGCTGATGAATTGATGTGATCGAGTAAACAAATTTTCCTAATCTTTCTGTTCAAGCGCCATCTAC", "binding signal": "1.17 RPM ratio (pull-down/input)"},
      {"sequence": "GATGATTGTTCTCCCAGCTGATGAATTAGCGTCCTCGAGTAAACAAATTTTCCTAATCTTTCTGTTCAAGCGCCATCTAC", "binding signal": "0.872 RPM ratio (pull-down/input)"},
      {"sequence": "GATGATTGTTCTCCCAGCTGATGAATTCCCAATTTCGAGTAAACAAATTTTCCTAATCTTTCTGTTCAAGCGCCATCTAC", "binding signal": "0.913 RPM ratio (pull-down/input)"},
      {"sequence": "GATGATTGTTCTCCCAGCTGATGAATTAAGATCCTCGAGTAAACAAATTTTCCTAATCTTTCTGTTCAAGCGCCATCTAC", "binding signal": "0.78 RPM ratio (pull-down/input)"},
      {"sequence": "GATGATTGTTCTCCCAGCTGATGAATTGTTAGTATCGAGTAAACAAATTTTCCTAATCTTTCTGTTCAAGCGCCATCTAC", "binding signal": "1.76 RPM ratio (pull-down/input)"},
      {"sequence": "GATGATTGTTCTCCCAGCTGATGAATTGCCAAAGTCGAGTAAACAAATTTTCCTAATCTTTCTGTTCAAGCGCCATCTAC", "binding signal": "0.982 RPM ratio (pull-down/input)"},
      {"sequence": "GATGATTGTTCTCCCAGCTGATGAATTATAATTCTCGAGTAAACAAATTTTCCTAATCTTTCTGTTCAAGCGCCATCTAC", "binding signal": "0.978 RPM ratio (pull-down/input)"},
      {"sequence": "GATGATTGTTCTCCCAGCTGATGAATTTACCTAATCGAGTAAACAAATTTTCCTAATCTTTCTGTTCAAGCGCCATCTAC", "binding signal": "1.47 RPM ratio (pull-down/input)"},
      {"sequence": "GATGATTGTTCTCCCAGCTGATGAATTGGATGTCTCGAGTAAACAAATTTTCCTAATCTTTCTGTTCAAGCGCCATCTAC", "binding signal": "0.868 RPM ratio (pull-down/input)"},
      {"sequence": "GATGATTGTTCTCCCAGCTGATGAATTTTATATTTCGAGTAAACAAATTTTCCTAATCTTTCTGTTCAAGCGCCATCTAC", "binding signal": "1.07 RPM ratio (pull-down/input)"},
      {"sequence": "GATGATTGTTCTCCCAGCTGATGAATTATCCACGTCGAGTAAACAAATTTTCCTAATCTTTCTGTTCAAGCGCCATCTAC", "binding signal": "0.947 RPM ratio (pull-down/input)"},
      {"sequence": "GATGATTGTTCTCCCAGCTGATGAATTGTACGCGTCGAGTAAACAAATTTTCCTAATCTTTCTGTTCAAGCGCCATCTAC", "binding signal": "0.979 RPM ratio (pull-down/input)"},
      {"sequence": "GATGATTGTTCTCCCAGCTGATGAATTAATCTGCTCGAGTAAACAAATTTTCCTAATCTTTCTGTTCAAGCGCCATCTAC", "binding signal": "0.843 RPM ratio (pull-down/input)"},
      {"sequence": "GATGATTGTTCTCCCAGCTGATGAATTAAGCGTGTCGAGTAAACAAATTTTCCTAATCTTTCTGTTCAAGCGCCATCTAC", "binding signal": "1.02 RPM ratio (pull-down/input)"},
      {"sequence": "GATGATTGTTCTCCCAGCTGATGAATTCTAGTGCTCGAGTAAACAAATTTTCCTAATCTTTCTGTTCAAGCGCCATCTAC", "binding signal": "0.871 RPM ratio (pull-down/input)"},
      {"sequence": "GATGATTGTTCTCCCAGCTGATGAATTCAGAGCCTCGAGTAAACAAATTTTCCTAATCTTTCTGTTCAAGCGCCATCTAC", "binding signal": "0.814 RPM ratio (pull-down/input)"},
      {"sequence": "GATGATTGTTCTCCCAGCTGATGAATTGGCGACCTCGAGTAAACAAATTTTCCTAATCTTTCTGTTCAAGCGCCATCTAC", "binding signal": "0.778 RPM ratio (pull-down/input)"}
    ]}
  ]
}
